# Source: patent publication US20050020580A1, “Materials and methods for the prevention or treatment of apoptosis and apoptosis-related diseases and conditions” (priority 2002, published 2005)
# Assay: Mouse pharmacokinetic studies: plasma drug concentrations by LC/MS/MS
# Assay type: in vivo, mice (BALB/C)
# Procedure: Administration of PI for Experimental Protocols: Six to eight-week-old BALB/C mice (Jackson Labs, Bar Harbor, Me.) were acclimatized for one week before receiving either control vehicle or PI by gavage. PIs were prepared by dissolving 1% weight per volume carboxymethylcellulose and 15 mg/mL Nelfinavir (NFV) oral powder (commercial preparation, Agouron Laboratories, La Jolla, Calif.) in 2% ethanol in distilled water. […] The PI mixture was administered every 8 hours for the indicated number of doses and mice were either sacrificed for pharmacokinetic studies or treated as described. Histopathology was performed by a consulting veterinary pathologist who was blinded as to the nature of experimental treatments.
# Immediately preceding the fourth dose and every two hours post gavage until hour 8, plasma drug concentrations were assayed. At both doses, NFV was undetectable (i.e. <2.5 ng/mL) 6 hours after dosing.
# Drug levels were assessed in two mice each for several time-points. NFV levels were 8172 and 8914 ng/mL at 1 hour, 5999 and 6006 ng/mL at 2 hours, 5559 and 6048 ng/mL at 3 hours, and 4005 to 4217 ng/mL at 4 hours post-dosing.
# [1] = NFV 125 mg/kg and RIT 13 mg/kg every 8 hours, plasma, two mice
structure (smiles),measurement,setting,value
"Cc1c(O)cccc1C(=O)N[C@@H](CSc1ccccc1)[C@H](O)CN1C[C@H]2CCCC[C@H]2C[C@H]1C(=O)NC(C)(C)C [NFV, nelfinavir]",concentration at 1 h,"BALB/C, mouse, plasma, oral, NFV 125 mg/kg and RIT 13 mg/kg every 8 hours, plasma, two mice, read-out: NFV levels at 1 hour post-dosing",8.17 µg/mL
same,concentration at 2 h,"BALB/C, mouse, plasma, oral, NFV 125 mg/kg and RIT 13 mg/kg every 8 hours, plasma, two mice, read-out: NFV levels at 2 hours post-dosing",6 µg/mL
same,concentration at 3 h,"BALB/C, mouse, plasma, oral, NFV 125 mg/kg and RIT 13 mg/kg every 8 hours, plasma, two mice, read-out: NFV levels at 3 hours post-dosing",5.56 µg/mL
same,concentration at 4 h,"BALB/C, mouse, plasma, oral, NFV 125 mg/kg and RIT 13 mg/kg every 8 hours, plasma, two mice, read-out: NFV levels at 4 hours post-dosing",4 to 4.22 µg/mL
same,concentration at 8 h,"BALB/C, mouse, plasma, oral, NFV 125 mg/kg and RIT 13 mg/kg every 8 hours, plasma, read-out: NFV trough concentrations (8 hours post-dosing)",1.2 to 1.26 µg/mL
same,NFV levels at 1 hour post-dosing,[1],8914 ng/mL
same,NFV levels at 2 hours post-dosing,[1],6006 ng/mL
same,NFV levels at 3 hours post-dosing,[1],6048 ng/mL
same,NFV plasma concentrations 6 hours after dosing,"NFV alone 250 mg/kg every 8 hours, BALB/C and C57BL/6 mice",undetectable
